Laboratory results reported in PubChem BioAssay (NCI).
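Five concentrations, 48 hours, 96-well plates. GI50 marks 50% less growth. At the TGI there is no net growth.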

Test system: NCI-H322M lung
Experiment: NCI-60 cell line screen, 48 h

| SMILES | GI50 | TGI |
| --- | --- | --- |
| Cn1cc(-c2nn3cc(-c4ccncc4)nc3s2)c2cc(Cl)ccc21 | 7.94 µM | 25.6 µM |
| CCOC(=O)c1c(NCC(=O)Nc2cccc([N+](=O)[O-])c2)sc2c1CCCC2 | 1.45 µM | 4.03 µM |
